# Data published in the supplement of paper PMC11417369.
# Some of the results follow.
# Tested on: PfHDP1 homeodomain (GST-tagged)
# Test: gcPBM binding intensity (ln(normalized median fluorescence intensity)); higher = stronger DNA binding
# Method in brief: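 Binding intensity is defined as the maximum Masliner-normalised natural-log median intensity across replicate spots for either probe orientation. It was measured on an Agilent 4 × 180k array of primer-extended double-stranded 36-bp intergenic genomic probes and negative controls, to which GST-tagged P. falciparum DNA-binding domains made in E. coli were applied for 1 h in 1× PBS with 1% milk, 0.2 mg/ml BSA, 0.5% salmon testes DNA and 0.03% Triton X-100. Detection was by Alexa488 anti-GST antibody and scanning at 488 nm.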
row,Sequence,gcPBM binding intensity (ln)
1,AATTATTGTATGCTATACGTTCCCCTCTAATTTATC [CACACA_negctrl_site1052],6.52
2,TATTTTTATATAATGTGTACTTATACCTTATTTTTT [XGTACX_site1658],6.49
3,TATATTTTTTTTGTGCGTACATACCATTTTAATAAT [XGTACX_site2751],7.68
4,CACAAACAAAAACACACACACACACCCACAAAAATG [CACACA_site2429],6.89
5,TACCTTTTTTGTTTTATGCACACCATATAACCAAGG [CACACA_site30],9.98
6,TAAAAAAAAAAAAAAGCATGCTATATTATATTACAC [TGCATGCA_site241],6.31
7,TTTTTTTTTCCGTGTTGTACAAAAAAAAAGATTTTG [XGTACX_site3925],6.21
8,TATAACTATTCACAGACATGCACATAATAACAATAA [TGCATGCA_site207],7.99
9,AAGAAATATTTATACACACACACAAACATATAAATA [CACACA_site6981],7.21
10,ATATATAAATTTTAGTGTACATTAATTTTTTTTTTT [XGTACX_site7782],6.42
11,AAAAAAAAAAAAAAAACACACAATAAAGTAAAATTT [CACACA_site135],6.56
12,TAAATATATTAAGCTTGTACATGAAAAAAAAAAAAA [XGTACX_site3264],6.55
13,AGTCTGAATAAAATTACACACATATACATATATATA [CACACA_site1780],6.62
14,TATGTATATAAATTAACACACATATGTGGTTAATAG [CACACA_site3143],6.31
15,CACTAAAATAAACACACACACACACCGATATATATA [CACACA_site9379],6.97
16,TTAATTTTATTTTTTTGTACACATAAATATTATAAA [XGTACX_site4680],6.62
17,CTTGTCATTTTGCACACACACATGTATAGGTTATTA [CACACA_site7431],10.9
18,TATATTTATATGATAACACACATAAATTATACATTT [CACACA_site1671],6.21
19,TATAACTATAAAAGTAGTACACATATATATTATATA [XGTACX_site1391],6.39
20,TATATATATATAGACACACACACACCCATATATATA [CACACA_site4117],8.85
21,TTTTTTTAAATATACACACACATTTATACCTATATA [CACACA_site7572],6.73
22,TTCCTAATTGACAACACACACAACAAAAAAGGGATT [CACACA_site1279],7.12
23,AATGGTTTAAAATACTGTACATATATATAAAAGTAA [XGTACX_site6187],6.65

row,Sequence,gcPBM binding intensity (ln)
1,AAAATAATAATTAATACATGCATTAATTCTTTTTTT [TGCATGCA_site741],5.93
2,ACTTCATTTTTTTTATGTACACAGAAGATTTACAAA [XGTACX_site4021],6.98
3,AGGAAAATAGAAAAAGCACACATATATTTTGGAATG [CACACA_site8080],6.61
4,ATTTATTTATTTTTTTGTACGAATGTTGCACATATA [XGTACX_site4101],9.71
5,CATATATTATTTAATAGTACATATAAAAGAAAAAAA [XGTACX_site4643],6.54
6,TATATAAATAAATGTGTACACACATTAAAATCAAAC [CACACA_site8733],6.82
7,TATATACATATATATACACACATATATATATTTTAT [CACACA_site3788],6.65
8,ATAATATATACTAAAAGTACATATTATAATAAATTA [XGTACX_site6749],5.86
9,GAAATAATTGTTAAAGGTACACAATGCATATACAAT [XGTACX_site238],7.08
10,ATACATATATATGTGTGTACATATGTGTATACATTT [XGTACX_site6544],6.84
11,TTTTATAAATCTAAACGTATCTAAATGAATAATTAA [GTGCAC_negctrl_site44],5.95
12,ATATGTATTAAGTGTACACATATAATGGGTTTGTTA [CACACA_site5682],6.94
13,GAATGAAAATAAAATTGTACACATATCTATATCTAT [XGTACX_site2642],6.37
14,TTTAATTAGGATAATTGTACTGAACTAAGTATATTT [XGTACX_site1871],5.97
15,AAAAAAAAAAAAAGTTGTACATTATTTTCCTAATTC [XGTACX_site7998],5.93
16,TATATTATATGTATTGCACACCTTCAACAACTACTT [CACACA_site8121],10.5
17,GAAAAATTAATAAATAAACACACATATATATATATA [CACACA_site8835],9.29
18,TCTTTATGTAAGGTCTTCCACAAAAAAATTAAAAAA [TGCATGCA_negctrl_site229],6.21
19,ATATATTATAGAGGTGTGCACTACATACATTATAAT [GTGCAC_site9991],10.1
20,AAATCAACTTATTTTTGTACATATATTTATTATATA [XGTACX_site2925],6.67
21,ATAGAAACATATTGACGTACAGTATAATAATACAGT [XGTACX_site197],6.37
22,ATATATGTACAAATTGTGCGCAATAATTTTGTCTTT,7.42
23,ATTTTCACCTGAACGGTGCATATTTAATTTTAGGTT,9.18

row,Sequence,gcPBM binding intensity (ln)
1,ATATATATATTAAGGGGTACGTAAAAAATTGGGAAG [XGTACX_site7322],7.95
2,TCAGTTAATGTATATGTACACACGGGGTGTATATAT [CACACA_site9103],6.8
3,AAATTATATCCCCTTTGTACTTACAGATCTTTATAC [XGTACX_site8163],6.24
4,ATAAATAAATACATATGTACATATATATATATATAT [XGTACX_site7145],9.28
5,ATGTTTTGTAAAATGATTAAATATTAAGATTCAATA [CACACA_negctrl_site1743],5.93
6,CATATACACGAACACACACACATATATATATATATA [CACACA_site4437],9.38
7,TAGTAAATAACAAAAGGAAAAATTAATGAGGCAAAA [TGCATGCA_negctrl_site526],6.69
8,CATCATAGCATTCCTCGTACAAATATAAACATATCA [XGTACX_site2711],6.6
9,CTTAGAGTATTTAAATGTACACGTTTGTATATGTAT [XGTACX_site1767],6.68
10,TAATGAGGAAAAAGTGTGTTAAGATTTTATAATTTA [GTGCAC_negctrl_site608],5.89
11,TAAAAAAAAATAAATACATGCATATAATACATTATA [TGCATGCA_site518],6.24
12,ATATATATATTAACAATACACACGTGTATACCTTAT [CACACA_site2217],8.24
13,TATCATATAAATACATGTACATATTTGGAAAATAAT [XGTACX_site5373],6.58
14,TGAACATGTTAAAATAAACACACAGCTAAGGTTTTT [CACACA_site7934],6.1
15,AAAATATAAATATATTGTACTGTTATATAATAAAAT [XGTACX_site2132],6.41
16,AATGTGAAATATAAATGTACATAAATATATATATAT [XGTACX_site8710],8.66
17,TAACTATCATGTATTACACACAATATTTATTATAGA [CACACA_site7301],6.63
18,TTTATAAAATTATTTGCATGTAACAATTATAAATTG [TGCATGCA_site1026],6.35
19,TTTTTTTTTCTTTCTCTTTAAATATTAATTAAAAAA [GTGCAC_negctrl_site90],6.22
20,ATAAAATACAGATAAACACACATATAAACACCCATA [CACACA_site5381],7.07
21,CTTTATTTTTTATACACACACAATATGTATAAATAT [CACACA_site7638],7.15
22,TTCTTTTTTCTTTATGGTACGTGTAATATATATCAA [XGTACX_site7960],7.14
23,TACATATTTTTTATGTGTACATATTTTTTATGTGTG [XGTACX_site444],6.22

row,Sequence,gcPBM binding intensity (ln)
1,CCCAATAATTAAACAACACACATATATATATGTAAT [CACACA_site3084],7.09
2,AAAAAAATTTGTATCACACACGTATTATAAAAAAAT [CACACA_site4182],6.24
3,TATTAAACTAAATGTAGTACATACACAAACGTAATC [XGTACX_site4905],6.6
4,TATTCGTGCAATAATGGTACACTTATAAATTATTCA [XGTACX_site1430],10.2
5,TCTCTCTTATAAAATACACACGAACAATCATATTAT [CACACA_site8065],6.72
6,ATTTTTTTTTTTAAATGTACATAATATATATATAAT [XGTACX_site2686],6.58
7,CGAACATTATAAATGTCATTTTTTCCAACTTGATCT [GTGCAC_negctrl_site501],5.94
8,TATAAATAATGTTAAACACACATACCGATATATAAC [CACACA_site7306],6.5
9,AAGCATTTCCATGGTGGTACTATACAAATAATAATT [XGTACX_site6193],6.23
10,AGATTTAAATATCATACACACTTTATCTATAATACA [CACACA_site6581],6.42
11,TATATTTATTTATATACACACATATTTATAAATATA [CACACA_site7047],6.78
12,CAAAATTGACATGACGCACACAAGTGTAGATATTTT [CACACA_site1250],6.57
13,TAGTTGTTTATAACACGTTGACAGAAATGTTATGTA [GTGCAC_negctrl_site624],6.02
14,GTACAAAAATAAATTGCACACATTTTAATAAAAAAA [CACACA_site2130],9.75
15,TGTGTACCGATATTAAGTTTAACGTTATAAAAATAT [CACACA_negctrl_site1547],6.55
16,AAACAGAATGCATATACACACATACAAAAAAGTGCA [CACACA_site6591],7.41
17,AAAGGACAAAAAAATGCATGCCGTTAAATTATGTAC [TGCATGCA_site512],6.44
18,TTTCTAAACCGGTACAGTACATATAAAAATAGAATA [XGTACX_site6662],6.74
19,TATGTGGCACAAAAGGGTACATATAATTTATACAGG [XGTACX_site5499],7.05
20,AGTGTATTTTTATGTTGTACATGTAATATTTTTGAT [XGTACX_site541],6.8
